In PubChem BioAssay AID463173 (ICCB-Longwood Screening Facility, Harvard Medical School, 2010):
Screen size: about 52,000 compounds; about 4,300 (8.3%) were called active. Cut-off read from the data, not from the text of the source: active = survival mostly below about 52% (no sharp cut-off); inactive = mostly above about 56%. The list shows a part of the results.

System: DeltatarO mutant
Test: S. aureus survival, RN4220 and DeltatarO strains – OD600, teichoic acid synthesis inhibitors, primary screen (AID 463173)
Details: S. aureus RN4220 wild type/DeltatarO growth, OD600, 18 h, active compounds read low, screened at 18.75 µg/mL (by protocol)

Structure (SMILES)	survival
COc1ccc(C)cc1NC(=O)C(=O)NCCc1csc(-c2ccc(C)cc2)n1	inactive: 102%
CS(=O)(=O)N1CCN(C2CCCCC2)CC1	inactive: 116%
Cc1ccc(NC(=O)CSc2nc3c(c(=O)[nH]2)CN(Cc2ccc4c(c2)OCO4)CC3)cc1C	inactive: 77%
Cn1c(=O)c2c(SCC(=O)NCc3ccco3)nc(-c3ccccc3Cl)nc2n(C)c1=O	inactive: 66%
CCOC(=O)c1ccc(NC(=O)c2oc3ccc4c(c3c2C)C(=O)CC(C)(CC)O4)cc1 (configuration not stated)	inactive: 85%
CCOC(=O)C1CCCN(c2ncnc3c2cnn3-c2ccc(C)c(Cl)c2)C1 (configuration not stated)	inactive: 88%
O=C(OC1OCCOC1OC(=O)C1CCCCC1)C1CCCCC1 (configuration not stated)	inactive: 90%
CC(C)c1ccc(CNCCSc2nnnn2C)cc1	inactive: 88%
Cc1ccc(S(=O)(=O)N=C2SCCCS2)cc1	inactive: 91%
CC(=O)Nc1c(C)nn(-c2ccccc2)c1N1CCC(C(=O)Nc2cc(Cl)ccc2C)CC1	inactive: 86%
CCc1ccccc1NC(=O)c1cc(S(=O)(=O)NCCc2ccc(OC)c(OC)c2)ccc1F	active: 8%
COc1ccc(OCC(=O)Nn2cnnc2)cc1	inactive: 73%
Cc1nc2c(-c3ccccc3)c(C)nn2c(C)c1CCC(=O)NCc1cccc(Cl)c1	inactive: 109%
Cc1nnc(NC(=O)c2nc(S(=O)(=O)Cc3ccccc3)ncc2Cl)s1	active: 48%
CN1CCN(CCCNC(=O)c2cnn(-c3ccccc3)c2C2CCN(C(=O)OC(C)(C)C)CC2)CC1	inactive: 119%
CCC(C)NC(=O)c1ccc2c(c1)N(Cc1ccccc1)C(=O)c1ccccc1S2(=O)=O (configuration not stated)	inactive: 56%
Cc1ccc2nc(-c3ccccn3)c(Nc3ccc(F)cc3)n2c1	active: 10%
CCC(Oc1ccccc1)C(=O)Nc1ccccc1OCc1cc(=O)n2ccccc2n1 (configuration not stated)	inactive: 94%
CC1=C(C(=O)Nc2ccc(Cl)cc2)C(C(C)C)n2nc(SCc3cccc(C)c3)nc2N1 (configuration not stated)	inactive: 90%

Structure (SMILES)	survival
CCOC(=O)c1c(C)c(C(=O)NCCc2ccc(OC)cc2)c(C)n1C	inactive: 99%
CCc1nn(CC(=O)Nc2cccc(C)c2C)c(=O)c2cc3sccc3n12	inactive: 81%
Cc1cccc(CNC(=O)c2cnc3sc(N4CCCCC4)nn3c2=O)c1	inactive: 113%
Cc1ccc(CCNC(=O)C2CCCN(Cc3nc(-c4cccc(Cl)c4)oc3C)C2)cc1 (configuration not stated)	active: 25%
CN(C(=O)CSc1cn(CC(=O)N2CCCCC2)c2ccccc12)c1ccccc1	inactive: 80%
O=C(Cc1ccc(F)cc1)N1CCC(c2nc3c(nnn3Cc3ccc(Cl)cc3)c(=O)[nH]2)CC1	active: 27%
COc1ccc(/C=C/c2nc(C#N)c(N3CCN(c4ccccc4)CC3)o2)cc1OC	inactive: 88%
CCc1ccc(NC(=O)Cn2cnc3sc(C)c(S(=O)(=O)N4CCC(C)CC4)c3c2=O)cc1	inactive: 78%
CCCC(=O)NCC(c1ccc2c(c1)OCO2)N1CCN(c2ccc(F)cc2)CC1 (configuration not stated)	inactive: 78%
COc1ccc(-c2nc3c(C#N)c[nH]n3c2NC2CCCCC2)c(OC)c1	inactive: 55%
COc1ccc(-n2ncc(C(=O)NCc3ccccc3)c2C2CCN(C(=O)OC(C)(C)C)CC2)cc1	inactive: 70%
Cc1sc2nc(CN(CCc3ccccc3)C(=O)c3ccco3)[nH]c(=O)c2c1C	inactive: 83%
COc1cccc(-n2ccnc2SCC(=O)Nc2cccc(C)c2C)c1	inactive: 90%
O=C(CN1CCC(n2nnc3ccccc32)CC1)Nc1cccc(F)c1	inactive: 95%
Cc1cc2c(cc1S(=O)(=O)NCc1ccc(N(C)C)cc1)OCC(=O)N2	inactive: 80%
CCCN(C(=O)c1cc2c(s1)-c1ccccc1SC2)c1ccccc1F	active: 1%
COc1ccc(N(CC(=O)NC(C)c2ccccc2)S(=O)(=O)c2c(C)noc2C)cc1 (configuration not stated)	inactive: 88%
CC1(c2ccc(Cl)cc2)CC(C)(C)N(C(=O)c2ccccc2)c2ccccc21 (configuration not stated)	active: -4%
Cc1ccc(CN2CCC(CNc3ncnc4onc(-c5ccc(Cl)cc5)c34)CC2)cc1	inactive: 80%

Structure (SMILES)	survival
COc1ccc(CCNC(=O)CCn2c(=O)c3cccn3c3ccc(F)cc32)c(OC)c1OC	active: 39%
Cc1ccc(OCc2nc3ccccc3n2CC(C)C)cc1	active: 1%
CCOc1ccccc1CNC(=O)Nc1cn(CC(C)C)c(=O)c2ccccc12	inactive: 99%
CC(=O)N1c2ccccc2CC1C(=O)N1CCN(c2ccc(F)cc2)CC1 (configuration not stated)	inactive: 113%
COc1ccc(C)cc1NC(=O)c1oc2ccc(S(=O)(=O)N(C)C3CCCCC3)cc2c1C	inactive: 80%
COC(=O)C1CCN(S(=O)(=O)c2cc3c4c(c2)C(C)C(=O)N4CCC3)CC1 (configuration not stated)	inactive: 99%
CCOC(=O)/C(C#N)=C\N1CCOCC1	inactive: 81%
CC(C)(C)c1cc(C(C)(C)C)c2oc(=O)c(-c3nc4ccccc4[nH]3)cc2c1	inactive: 69%
O=C(CSc1nc2ccccc2c2nc(-c3ccccc3)nn12)Nc1ccc(Br)cc1	inactive: 94%
CCc1cc(C(=O)Nc2c(C)nn(Cc3ccc(C)cc3)c2C)no1	inactive: 64%
Cc1ccc(Cn2c(SCC(=O)NCc3ccc(Cl)cc3)nc3ccsc3c2=O)cc1	inactive: 120%
CCOC(=O)c1noc2ncnc(N3CCN(c4ccccc4OC)CC3)c12	inactive: 77%
CCOC(=O)c1c(C)c(-c2ccccc2)n(CC(=O)Nc2cc(OC)cc(OC)c2)c1C	inactive: 66%
COc1cc(C2NC(=O)NC(C)=C2C(=O)Nc2cc(C)cc(C)c2)ccc1O (configuration not stated)	active: 38%
CC(C)(C)NS(=O)(=O)c1ccc2nc(NC(=O)c3cccnc3)sc2c1	inactive: 86%
COC(=O)CNC(=O)Nc1cc(C(=O)NCc2ccc(C)cc2)ccc1N1CCCC1	inactive: 76%
CC(C(=O)O)c1n[nH]c(=O)c2ccccc12 (configuration not stated)	inactive: 91%
Cc1ccc(Cl)cc1N1CCN(C(=O)c2cn(C3CCCCC3)c(=O)c3c2c2ccccc2n3C)CC1	inactive: 71%
CN(C)c1ccc(C(CNC(=O)COc2ccc(Cl)cc2)N2CCOCC2)cc1 (configuration not stated)	inactive: 55%
